The supplement of paper PMC12217912
Some of the results follow. The full chains were built here from the parent and the listed change. Inactive controls read about 0.05.

B1: TEV protease; numbered along this chain (parent)
chain: MGESLFKGPRDYNPISSSICHLTNESDGHTTSLYGIGFGPFIITNKHLFRRNNGTLVVQSLHGVFKVKDTTTLQQHLVDGRDMIIIRMPKDFPPFPQKLKFREPQREERICLVTTNFQTKSMSSMVSDTSCTFPSGDGIFWKHWIQTKDGQCGSPLVSTRDGFIVGIHSASNFTNTNNYFTSVPKNFMELLTNQEAQQWVSGWRLNADSVLWGGHKVFMVKPEEPFQPVKEATQL

Variants of: B1
Test: raw area under fraction-flipped curve 0-4 h after induction (AUC4h, not background-subtracted), DNA-recorder readout of cleavage of the substrate (dimensionless); higher = more cleavage of the substrate by the protease variant
Conditions: temperature: 34 °C; time window: 0-4 h after rhamnose induction
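Also: Bxb1 expression induced with 0.2% (w/v) L-rhamnose at OD600 near 0.5, cultures sampled hourly, flipped fraction per protease–substrate barcode pair counted by paired-end Illumina sequencing.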

| Variant | area with substrate ENLYFQF | area with substrate ENLYFQK | area with substrate ENLYFQL | area with substrate ENLYFQM | area with substrate ENLYFQQ | area with substrate ENLYFQR | area with substrate ENLYFQS | area with substrate ENLYFQT | area with substrate ENLYFQV | area with substrate ENLYFQW | area with substrate ENLYFQY | area with substrate ENLYFQG | area with substrate ENLYFQH | area with substrate ENLYFQI | area with substrate ENLYFQN | area with substrate ENLYFQP |
| --- | --- | --- | --- | --- | --- | --- | --- | --- | --- | --- | --- | --- | --- | --- | --- | --- |
| MGESLFKGPRDYNPISSSICHLTNESDGHTTSLYGIGFGPFIITNKHLFRRNNGTLVVQSLHGVFKVKDTTTLQQHLVDGRDMIIIRMPKDFPPFPQKLKFREPQREERICLVTTNFQTKSMSSMVSNTSCTFPSGDGIFWKHWIQTKDGQCGSPLVSTRDGFIVGIHSASNFTNTNNYFTSVPKNFMELLTNQEAQQWVSGWRLNADSVLWGGHKVFMVKPEEPFQPVKEATQL [D128N] | 0.0737 | 0.0736 | 0.0585 | 0.0928 | 0.0903 | 0.0455 | 0.127 | 0.0756 | 0.0642 | 0.0608 | 0.0851 |  |  |  |  |  |
| MGESLFKGPRDYNPISSSICHLTNESDGHTTSLYGIGFGPFIITNKHLFRRNNGTLVVQSLHGVFKVKDTTTLQQHLVDGRDMIIIRMPKDFPPFPQKLKFREPQREERICLVTTNFQTKSMSSMVSRTSCTFPSGDGIFWKHWIQTKDGQCGSPLVSTRDGFIVGIHSASNFTNTNNYFTSVPKNFMELLTNQEAQQWVSGWRLNADSVLWGGHKVFMVKPEEPFQPVKEATQL [D128R] | 0.0879 | 0.0445 | 0.0527 | 0.105 |  | 0.0858 | 0.124 | 0.0581 |  | 0.0737 |  | 0.12 | 0.108 | 0.0671 |  |  |
| MGESLFKGPRDYNPISSSICHLTNESDGHTTSLYGIGFGPFIITNKHLFRRNNGTLVVQSLHGVFKVKDTTTLQQHLVDGRDMIIIRMPKDFPPFPQKLKFREPQREERICLVTTNFQTKSMSSMVSDTSCTFPSGDGIFWKHWIQTKDGQCGSPLVSTRDGFIVGIGSASNFTNTNNYFTSVPKNFMELLTNQEAQQWVSGWRLNADSVLWGGHKVFMVKPEEPFQPVKEATQL [H168G] | 0.0462 | 0.0744 |  | 0.0319 |  | 0.0469 | 0.0612 | 0.0653 |  | 0.0486 |  | 0.0782 | 0.0572 | 0.0471 |  |  |
| MGESLFKGPRDYNPISSSICHLTNESDGHTTSLYGIGFGPFIITNKHLFRRNNGTLVVQSLHGVFKVKDTTTLQQHLVDGRDMIIIRMPKDFPPFPQKLKFREPQREERICLVTTNFQTKSMSSMVSDTSCTFPSGDGIFWKHWIQTKDGQCGSPLVSTRDGFIVGIHSASNFTNVNNYFTSVPKNFMELLTNQEAQQWVSGWRLNADSVLWGGHKVFMVKPEEPFQPVKEATQL [T176V] | 0.0621 |  |  | 0.0595 |  | 0.0571 | 0.0813 |  |  |  |  |  |  | 0.0641 | 0.06 | 0.0708 |
| MGESLFKGPRDYNPISSSICHLTNESDGHTTSLYGIGFGPFIITNKHLFRRNNGTLVVQSLHGRFKVKDTTTLQQHLVDGRDMIIIRMPKDFPPFPQKLKFREPQREERICLVTTNFQTKSMSSMVSDTSCTFPSGDGIFWKHWIQTKDGQCGSPLVSTRDGFIVGIHSASNFTNTNNYFTSVPKNFMELLTNQEAQQWVSGWRLNADSVLWGGHKVFMVKPEEPFQPVKEATQL [V64R] |  |  |  |  | 0.0688 | 0.0538 | 0.0936 | 0.0666 |  | 0.0729 | 0.0882 | 0.0658 |  | 0.061 | 0.0578 | 0.0619 |
| MGESLFKGPRDYNPISSSICHLTNESDGHTTSLYGIGFGPFIITNKHLFRRNNGTLVVQSLHGVFKVKDTTTLQQHLVDGRDMIIIRMPKDFPPFPQKLKFREPQREERICLVTTNFQTKSMSSMVSDTSCTFPSGDGIFWKHNIQTKDGQCGSPLVSTRDGFIVGIHSASNFTNTNNYFTSVPKNFMELLTNQEAQQWVSGWRLNADSVLWGGHKVFMVKPEEPFQPVKEATQL [W144N] |  | 0.0698 | 0.0602 | 0.0822 | 0.0604 | 0.0558 | 0.0838 |  |  |  | 0.0674 | 0.0838 | 0.0575 | 0.0567 |  | 0.0427 |
| MGESLFKGPRDYNPISSSICHLTNESDGHTTSLYGIGFGPFIITNKHLFRRNNGTLVVQSLHGVFKVKDTTTLQQHLVDGRDMIIIRMPKDFPPFPQKLKFREPQREERICLVTTNFQTKSMSSMVSDTSCTFPSGDGIFWKHWIQTKDGQCGSPLVSTRDGFIVGIHSASNFTNNNNYFTSVPKNFMELLTNQEAQQWVSGWRLNADSVLWGGHKVFMVKPEEPFQPVKEATQL [T176N] |  | 0.04 | 0.0602 |  |  | 0.0632 | 0.077 | 0.0558 |  | 0.0587 |  | 0.0896 |  | 0.0528 |  | 0.066 |
| MGESLFKGPRDYNPISSSICHLTNESDGHTTSLYGIGFGPFIITNKHLFRRNNGTLVVQSLHGVFKVKDTTTLQQHLVDGRDMIIIRMPKDFPPFPQKLKFREPQREERICLVTTNFQTKSMSSMVSDTSCTFPSGDGIFWKHWIQTKDGQCGSPLVSTRDGFIVGIHSASNFTNTNNYFTSVPKNFMELLTNQEAQQWVSGWRLNADSVLWGGHQVFMVKPEEPFQPVKEATQL [K216Q] |  | 0.062 | 0.0324 | 0.105 |  |  | 0.111 |  |  | 0.118 | 0.0833 | 0.13 |  | 0.0551 | 0.0762 |  |
| MGESLFKGPRDYNPISSSICHLTNESDGHTTSLYGIGFGPFIITNKHLFRRNNGTLVVQSLHGVFKVKDTTTLQQHLVDGRDMIIIRMPKDFPPFPQKLKFREPQREERICLVTTNFQTKSMSSMVSDTSCTFPSGDGIFWKHWIQTKDGQCGSPLVSTRDGFIVGINSASNFTNTNNYFTSVPKNFMELLTNQEAQQWVSGWRLNADSVLWGGHKVFMVKPEEPFQPVKEATQL [H168N] |  |  | 0.0578 | 0.0605 | 0.0389 | 0.0597 | 0.0619 | 0.0691 | 0.0761 |  |  |  | 0.0636 | 0.0543 |  |  |
| MGESLFKGPRDYNPISSSICHLTNESDGHTTSLYGIGFGPFIITNKHLFRRNNGTLVVQSLHGVFKVKDTTTLQQHLVDGRDMIIIRHPKDFPPFPQKLKFREPQREERICLVTTNFQTKSMSSMVSDTSCTFPSGDGIFWKHWIQTKDGQCGSPLVSTRDGFIVGIHSASNFTNTNNYFTSVPKNFMELLTNQEAQQWVSGWRLNADSVLWGGHKVFMVKPEEPFQPVKEATQL [M88H] |  |  |  | 0.0477 |  |  | 0.0574 | 0.0668 |  |  |  |  |  | 0.0327 | 0.0398 |  |
